Data: PubChem BioAssay AID2107 (National Center for Advancing Translational Sciences (NCATS), 2009)
The whole screen tested about 240,000 compounds, of which about 20 (0.008%) were called active. Inconclusive means that the source gave no clear call. Such entries were picked first, then a sample of the others. Calls come from the whole dose curve; as a rule, active = well fitted inhibition curve with a large enough effect; inconclusive = small, poorly fitted or top-dose-only effect, or effect the other way; inactive = flat fitted curve, though single readings scatter. Potencies of inconclusive entries are left out as doubtful fits.

target: Alpha-galactosidase A (Homo sapiens) (UniProt P06280); test: qHTS Assay for Inhibitors and Activators of Human alpha-Galactosidase From Spleen Homogenate; conditions: 4MU-alpha-Gal fluorescence, 40 min; activity change, negative = inhibition: at 80 µM (top of the series);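 for activity change, negative = inhibition: 0% = enzyme with vehicle and -100% = no enzyme basal signal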
Chain of UniProt P06280 (P06280 whole entry, looked up): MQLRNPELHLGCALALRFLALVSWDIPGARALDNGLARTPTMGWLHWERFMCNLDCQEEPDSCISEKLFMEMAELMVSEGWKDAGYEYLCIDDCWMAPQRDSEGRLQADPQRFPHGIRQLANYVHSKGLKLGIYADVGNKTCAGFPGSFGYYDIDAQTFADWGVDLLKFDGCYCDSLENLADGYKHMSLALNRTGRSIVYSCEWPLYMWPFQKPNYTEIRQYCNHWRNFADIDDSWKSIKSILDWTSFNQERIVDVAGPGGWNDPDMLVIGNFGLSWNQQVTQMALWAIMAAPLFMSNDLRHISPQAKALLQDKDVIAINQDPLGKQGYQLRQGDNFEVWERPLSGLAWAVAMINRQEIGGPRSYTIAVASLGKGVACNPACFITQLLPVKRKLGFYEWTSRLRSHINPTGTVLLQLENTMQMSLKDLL
How it was run: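 Human spleen homogenate (1 ug) as enzyme source, 4-methylumbelliferyl-alpha-D-galactopyranoside 1 mM final, citrate/phosphate pH 5.0 with 0.01% Tween-20. Compounds 40 min at 37C, NaOH/glycine stop; fluorescence Ex 365/Em 440, Hill-fit AC50.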
Potency is the fitted concentration of half-maximal effect; tags give direction and shape of the fitted curve.

Row | Structure (SMILES) | Potency | activity change, negative = inhibition
1 | O=c1[nH]c2cc3c(cc2cc1CN(Cc1nnnn1CC1CCCO1)C1CCCC1)OCO3 (configuration not stated) | inconclusive [activator, single point] | –
2 | COc1ccc(-c2c(C#N)c(N)nc3c2CCc2ccccc2-3)cc1OC | inconclusive [activator, partial curve] | –
3 | Nc1ccc2nc(-c3cc(Cl)c(N)c(Cl)c3)[nH]c2c1 | – | inactive: -3.01%
4 | CCOC(=O)N1CCN(C(=O)c2ccc(CS(=O)(=O)c3ccccc3OC)o2)CC1 | inconclusive [activator, single point] | –
5 | Cc1nn(Cc2c(Cl)cccc2Cl)c(C)c1NC(=O)CCCn1nc(C)c([N+](=O)[O-])c1C | inconclusive [activator, single point] | –
6 | CCc1cc2c3c(c(=O)oc2cc1O)CCCC3 | inconclusive [activator, partial curve] | –
7 | COC(=O)c1cc2c(s1)-c1ccccc1OC2 | inconclusive [activator, single point] | –
8 | CCCCCC[N+](C)(C)CCSSCC[N+](C)(C)CCCCCC | inconclusive [activator, full curve, poor fit] | –
9 | O=[N+]([O-])c1ccc(Nc2c3ccccc3nc3ccccc23)cc1 | inconclusive [activator, single point] | –
10 | COc1cccc(-c2cncnc2Nc2ccc(F)cc2)c1 | – | inactive: -8.53%
11 | Cc1cc(=O)oc2cc(NC(=S)NCc3ccccn3)ccc12 | inconclusive [activator, single point] | –
12 | CC(=O)Nc1c(S(=O)(=O)c2ccccc2)c2nc3ccccc3nc2n1Cc1ccccc1 | inconclusive [activator, partial curve] | –
13 | Cc1ccc(N2C(=O)C3C(C(=O)c4ccccc4)=NN(c4ccccc4)C3C2=O)cc1 (configuration not stated) | inconclusive [activator, partial curve] | –
14 | Cc1nc(N2CCCCC2)c2sc(=S)n(C)c2n1 | – | inactive: 0.623%
15 | Cc1ccccc1-c1cc(N(C)Cc2ccco2)ncn1 | inconclusive [inhibitor, single point] | –
16 | Cc1ccc(O)c(/C=N/NC(=O)c2[nH]ncc2Br)c1 | inconclusive [activator, partial curve] | –
17 | Cc1cc(C)c(C#N)c(OCC(=O)c2ccc(Br)cc2)n1 | – | inactive: -5.1%
18 | O=S(=O)(Nc1cccc2cccnc12)c1ccc(Br)s1 | – | inactive: 0.564%
19 | COc1ccc(-c2nc(C(=O)N3CCN(C)CC3)sc2-c2ccc(OC)cc2)cc1 | inconclusive [activator, single point] | –
20 | NCCC[C@@H](CC(=O)N[C@@H]1CCCC[C@H]1C(=O)N[C@H](CC(=O)N[C@@H](CCC(=O)O)CC(=O)O)Cc1c[nH]c2ccccc12)NC(=O)C[C@H](CO)NC(=O)[C@@H]1CCCC[C@H]1N | – | inactive: -0.0446%
21 | Cc1cc(=O)n2ccccc2c1C#N | inconclusive [activator, partial curve] | –
22 | COc1ccc(NC(=O)c2c(F)c(F)c(F)c(F)c2F)cc1Cl | inconclusive [activator, single point] | –
23 | COC(=O)c1c(-c2cccs2)csc1NC(=O)c1cccnc1 | inconclusive [inhibitor, partial curve] | –

Row | Structure (SMILES) | Potency | activity change, negative = inhibition
24 | CCOc1ccc(S(=O)(=O)Nc2ccc3c(c2)OCO3)c2cccnc12 | inconclusive [inhibitor, partial curve, poor fit] | –
25 | O=c1ccc2ccc(Oc3ccc([N+](=O)[O-])cc3[N+](=O)[O-])cc2o1 | inconclusive [activator, partial curve] | –
26 | Cc1ccc(-c2cc(C(=O)NCCCn3ccnc3)c3cc(Br)ccc3n2)o1 | inconclusive [activator, single point] | –
27 | CN1C(=O)c2ccccc2N(C)C1c1ccc2c(c1)OCO2 (configuration not stated) | inconclusive [activator, single point] | –
28 | COc1ccc(OC)c2c1CCC2=O | inconclusive [activator, partial curve] | –
29 | Oc1ccccc1/C=N/Nc1cccc2cccnc12 | – | inactive: -9.77%
30 | CC1=C(C(=O)Nc2ccccc2F)C(c2ccsc2)C2=C(CC(C)(C)CC2=O)N1 (configuration not stated) | inconclusive [activator, single point] | –
31 | Nc1ccccc1C(=O)NNc1c2ccccc2nc2ccccc12 | – | inactive: 7.97%
32 | CC(/C=N/NC(=O)c1cc(-c2cccs2)[nH]n1)=C\c1ccccc1 | – | inactive: 1.65%
33 | C/C=C(/C)C(=O)OC1C(OC(C)=O)[C@@]2(CO)C(O)C[C@@]3(C)C(=CCC4[C@@]5(C)CCC(OC6OC(C(=O)O)[C@@H](O[C@@H]7OC(CO)C(O)C(O)C7O)C(O)[C@H]6O[C@@H]6OC(CO)C(O)C(O)C6O)[C@](C)(CO)C5CC[C@@]43C)C2CC1(C)C (some centres not stated) | inconclusive [inhibitor, single point] | –
34 | COc1cc(NC(=O)CSc2nnnn2-c2ccccc2)cc(OC)c1OC | – | inactive: 3.26%
35 | CC(C)c1cccc2c([Si](C)(C)C)c3c(nc12)-c1cccc(=O)n1C3 | inconclusive [activator, partial curve] | –
36 | COc1ccc2[nH]cc(CCNc3ccnc(-c4ccc(N(C)C)cc4)n3)c2c1 | inconclusive [inhibitor, partial curve, poor fit] | –
37 | CC(=O)Nc1ccc2c(c1)OCO2 | – | inactive: 7.1%
38 | CC[C@@H](NS(=O)(=O)c1ccc(C)cc1)C(=O)Oc1ccc2c3c(c(=O)oc2c1)CCC3 | inconclusive [activator, single point] | –
39 | CC(C)=NO[C@@H](C)CN1CCCc2nc(C)c(C)cc21 | inconclusive [activator, partial curve] | –
40 | C=CCn1c2ccccc2c2nnc(SCC(=O)NC(C(=O)OC)C(C)C)nc21 (configuration not stated) | active: 39.8 µM | –
41 | CC(C)(C)NC(=O)COC(=O)c1ccc(Cl)cc1O | – | inactive: 0.912%
42 | Cn1c(=O)c2ncn(CC(=O)NCCOc3ccccc3)c2n(C)c1=O | – | inactive: 2.77%
43 | Cc1ccc(C(=O)N/C(=C\c2ccco2)C(=O)NCc2cccnc2)cc1 | inconclusive [inhibitor, single point] | –
44 | CCOc1ccc(/C(O)=C2\C(=O)C(=O)N(CCOCCO)C2c2ccccc2OC)cc1 (configuration not stated) | inconclusive [inhibitor, single point] | –
45 | COc1ccc2cc3cc(C(=O)NC(C)C)oc3nc2c1 | inconclusive [activator, partial curve] | –
46 | Cc1ccc(C)c(NC(=O)c2ccccc2NS(=O)(=O)c2cc([N+](=O)[O-])ccc2C)c1 | – | inactive: -15.7%

Row | Structure (SMILES) | Potency | activity change, negative = inhibition
47 | COc1ccc2c(c1)c1ncn(Cc3ccco3)c(=O)c1n2C | inconclusive [activator, single point] | –
48 | c1ccc(C(c2ccccc2)N2CCN(c3nc4ccccc4n4cnnc34)CC2)cc1 | inconclusive [activator, single point] | –
49 | COC(=O)NNC(=O)C12CC3CC(CC(C3)C1)C2 | inconclusive [activator, single point] | –
50 | Cn1c(=O)[nH]c(=O)c2c1nc(N/N=C/c1ccncc1)n2Cc1ccc(Cl)cc1 | inconclusive [activator, single point] | –
51 | CN(C)c1ncc2nc(-c3ccc(Cl)cc3)c(=O)n(C3CC3)c2n1 | inconclusive [activator, partial curve] | –
52 | Cc1ccc(C)c(NC(=S)NNC(=O)c2ccco2)c1 | – | inactive: 9.28%
53 | Cc1cc(N2CCC(C(=O)N3CCN(c4cccc(C)c4C)CC3)CC2)n2ncnc2n1 | – | inactive: -20.6%
54 | CS(=O)(=O)N1CCc2cc(S(=O)(=O)NCCNS(=O)(=O)c3ccc4c(c3)CCN4S(C)(=O)=O)ccc21 | inconclusive [inhibitor, single point] | –
55 | NC(=NCc1ccc(Cl)c(Cl)c1)NC(=O)c1nc(Cl)c(N)nc1N | inconclusive [activator, partial curve] | –
56 | CC12C=C(/C=C/CCc3ccco3)C(C)(C1)[C@H](CCc1ccco1)CC2=O (some centres not stated) | – | inactive: 0.748%
57 | CC(=O)Oc1ccc2c(C)cc(=O)[nH]c2c1 | inconclusive [activator, partial curve] | –
58 | CCCc1nnc2c(N(C)S(=O)(=O)c3ccccc3)nc3ccccc3n12 | – | inactive: -7.12%
59 | Cc1cccc(N2CCN(C(=O)CCS(=O)(=O)c3ccc(Br)cc3)CC2C)c1 (configuration not stated) | inconclusive [inhibitor, partial curve] | –
60 | Cc1nc(NCCN2CCOCC2)c2oc3ccccc3c2n1 | inconclusive [inhibitor, single point] | –
61 | CCOC(=O)c1cccc(NC(=O)CSc2nnc(COc3ccccc3C)o2)c1 | inconclusive [inhibitor, single point] | –
62 | O=C(N/N=C/c1cccnc1)c1ccc([N+](=O)[O-])cc1Cl | inconclusive [activator, single point] | –
63 | O=C(OCCN1C(=O)c2ccccc2C1=O)c1cccs1 | inconclusive [activator, partial curve] | –
64 | CCOC(=O)CNC(c1ccccc1)c1cc(Br)ccc1NC(=O)CCN1CCOCC1 (configuration not stated) | inconclusive [inhibitor, single point] | –
65 | COc1ccc(C2=CC(=O)N(Nc3ccccc3)C2=O)cc1 | – | inactive: 0.285%
66 | O=c1c2ccccc2[nH]c2ccc(F)cc12 | inconclusive [activator, partial curve] | –
67 | Cc1cc(-c2nc3cccnc3s2)ccc1NS(=O)(=O)c1ccc2c(c1)OCCO2 | inconclusive [activator, partial curve] | –
